Test results from PMC4336329 (PLoS ONE, 2015).
In all, about 310,000 compounds went through this assay and about 14,000 (4.5%) showed an effect of 50% or more. The effect is printed as a negative number. The list shows a part of the results.

target: human ether-à-go-go-related gene (hERG) potassium channel (human, UniProt Q12809); assay: primary screen, population patch clamp on CHO cells stably expressing hERG
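Also: peak tail current of the secondary pulse compared with the same well before compound.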

human ether-à-go-go-related gene (hERG) potassium channel, sequence (Q12809 whole entry, looked up): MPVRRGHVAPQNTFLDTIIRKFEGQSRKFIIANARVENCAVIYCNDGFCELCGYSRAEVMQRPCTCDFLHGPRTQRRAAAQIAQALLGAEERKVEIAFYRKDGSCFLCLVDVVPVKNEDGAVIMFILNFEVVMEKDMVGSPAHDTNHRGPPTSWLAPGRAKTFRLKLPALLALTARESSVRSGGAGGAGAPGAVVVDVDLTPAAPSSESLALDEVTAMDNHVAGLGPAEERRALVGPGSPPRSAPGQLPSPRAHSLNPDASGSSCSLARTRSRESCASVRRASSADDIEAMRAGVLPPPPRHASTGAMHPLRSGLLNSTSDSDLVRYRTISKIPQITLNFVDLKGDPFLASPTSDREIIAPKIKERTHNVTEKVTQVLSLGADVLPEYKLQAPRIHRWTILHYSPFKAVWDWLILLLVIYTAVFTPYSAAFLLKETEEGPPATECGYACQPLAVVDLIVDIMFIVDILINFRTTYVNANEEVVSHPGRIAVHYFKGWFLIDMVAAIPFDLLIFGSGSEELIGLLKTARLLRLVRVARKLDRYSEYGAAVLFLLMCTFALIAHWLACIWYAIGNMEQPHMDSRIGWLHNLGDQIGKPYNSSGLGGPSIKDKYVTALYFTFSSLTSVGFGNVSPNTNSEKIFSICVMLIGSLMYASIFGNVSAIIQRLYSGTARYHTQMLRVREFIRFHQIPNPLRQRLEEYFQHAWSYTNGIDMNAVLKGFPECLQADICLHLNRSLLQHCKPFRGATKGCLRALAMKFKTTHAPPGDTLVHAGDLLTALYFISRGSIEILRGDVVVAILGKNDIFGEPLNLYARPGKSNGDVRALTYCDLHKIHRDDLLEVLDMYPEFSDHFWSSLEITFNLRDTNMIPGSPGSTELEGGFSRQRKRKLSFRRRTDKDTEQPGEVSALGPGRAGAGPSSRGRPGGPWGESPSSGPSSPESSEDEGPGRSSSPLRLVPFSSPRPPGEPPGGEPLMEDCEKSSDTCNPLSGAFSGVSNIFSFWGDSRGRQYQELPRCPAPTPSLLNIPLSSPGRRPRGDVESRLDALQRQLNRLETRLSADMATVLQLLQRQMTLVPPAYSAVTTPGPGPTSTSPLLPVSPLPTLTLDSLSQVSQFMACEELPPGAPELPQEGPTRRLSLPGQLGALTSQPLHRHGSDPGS

First: CCOc1ccc(N(CC(=O)N2CCN(c3ccc(F)cc3)CC2)S(=O)(=O)c2c(C)noc2C)cc1
Second: CCOC(=O)N1CCN(C(=O)c2ccc3c(=O)n(-c4ccc(OC)cc4)c(=S)[nH]c3c2)CC1
The “hERG current change (%, negative = inhibition) at 10uM” value of the first is lower: -27.2% for the first, 18.4% for the second.

First: CN(CC1CCCO1)S(=O)(=O)c1ccc(C(=O)NCc2ccccc2)cc1 (stereo not shown)
Second: O=C(CNC(=O)c1ccc(Br)o1)NCc1ccccc1
The “hERG current change (%, negative = inhibition) at 10uM” value of the first is lower: 4.32% for the first, 6.66% for the second.

Going from `O=C(CSc1ccccc1)NNC(=O)c1ccccc1O` to `O=C(c1cnn(-c2ccccc2)c1)c1cc(F)ccc1O`, the “hERG current change (%, negative = inhibition) at 10uM” value falls from 19.1% to 14.6%.

Compared with `Nc1cccc(/C=C/C(=O)O)c1`, `COc1cc(C(=O)O)c2ccccc2n1` is lower in “hERG current change (%, negative = inhibition) at 10uM” value: 20.1% for the first, 15.7% for the second.

Compared with `COc1ccc(/C=C/C(=O)N(CC(C)C)CC(C)C)cc1Br`, `CC(C)Cc1ccc(C(C)C(=O)Nc2ccc(O)cc2)cc1` (stereo not shown) is higher in “hERG current change (%, negative = inhibition) at 10uM” value: -2.75% for the first, 11.3% for the second.

First: N#C/C(C(=O)N1CCCCC1)=C1/N=C(NC(=O)c2ccc(F)cc2)c2ccccc21
Second: Cc1ccccc1-n1nnnc1SCCCC(=O)c1ccc(F)cc1
The “hERG current change (%, negative = inhibition) at 10uM” value of the first is higher: 19.3% for the first, -12% for the second.

Compared with `CCN(CC)S(=O)(=O)c1cccc(NC(=O)C2CC(=O)N(c3ccc4c(c3)OCCO4)C2)c1` (stereo not shown), `Cc1cccc(NC(=O)C2COc3ccccc3O2)c1` (stereo not shown) is higher in “hERG current change (%, negative = inhibition) at 10uM” value: -39.8% for the first, 11.6% for the second.

Going from `Cc1cc[n+](CC(=O)N2CCCc3ccccc32)cc1.[Cl-]` to `Cc1cc(C(=O)NC2CCCc3ccccc32)ccc1[N+](=O)[O-]` (stereo not shown), the “hERG current change (%, negative = inhibition) at 10uM” value falls from 23.9% to 9.18%.

Compared with `O=C(CCn1c(=S)[nH]c2ccccc2c1=O)NCCc1ccc(Cl)cc1`, `O=S(=O)(Nc1ccccc1N1CCOCC1)c1ccc(Cl)cc1` is lower in “hERG current change (%, negative = inhibition) at 10uM” value: 5.03% for the first, -20.3% for the second.

Compared with `O=C(Nc1ccc(F)cc1F)c1cc2ccccc2oc1=O`, `COc1ccc(-c2nn(-c3ccccc3)cc2C(=O)N(C)CC(=O)Nc2cccc(F)c2)cc1` is higher in “hERG current change (%, negative = inhibition) at 10uM” value: 0.944% for the first, 3.07% for the second.

Going from `O=C(Nc1ccc([N+](=O)[O-])cc1)Nc1ccc(N2CCOCC2)c2nonc12` to `Cc1nc(-c2ccccn2)nc(N2CCOCC2)c1Cl`, the “hERG current change (%, negative = inhibition) at 10uM” value falls from 17.6% to 5.21%.

First: CCN(CC(=O)NC1CCS(=O)(=O)C1)S(=O)(=O)c1ccc(F)cc1 (stereo not shown)
Second: CCN(CC(=O)NC)S(=O)(=O)c1ccc(C)cc1
The “hERG current change (%, negative = inhibition) at 10uM” value of the first is higher: 18.9% for the first, 9.49% for the second.

Compared with `COc1ccc(CC(=O)N2N=C(c3ccncc3)CC2(O)C(F)(F)F)cc1` (stereo not shown), `C=CCNC(=O)Cn1nnc(-c2ccc(-c3ccc(OC)cc3)cc2)n1` is higher in “hERG current change (%, negative = inhibition) at 10uM” value: 0.84% for the first, 19.9% for the second.

First: COc1ccccc1N(CC(=O)NCCSCc1ccco1)S(=O)(=O)c1ccccc1
Second: CCC(=NCCC(c1ccccc1)c1ccccc1)c1c(O)n(C)c(=O)n(C)c1=O
The “hERG current change (%, negative = inhibition) at 10uM” value of the first is lower: -26.6% for the first, -12% for the second.

Going from `CCOC(=O)c1ccc(NC(=O)CSc2nnc(COc3ccccc3)n2C)cc1` to `C=CCn1c(COc2ccc3c(c2)CCCC3)nnc1SCC(=O)Nc1cccc(SC)c1`, the “hERG current change (%, negative = inhibition) at 10uM” value rises from 3.57% to 15.1%.

Going from `CCCCCC(O)c1cccc(OCc2ccc3ccccc3n2)c1` (stereo not shown) to `Cc1ccc(/C=N/NC(=O)CNC(=O)COc2ccc(Cl)cc2)o1`, the “hERG current change (%, negative = inhibition) at 10uM” value falls from 13% to -4.35%.

Going from `CN1CCN(C(=O)/C(=C/c2ccccc2)c2ccccc2)CC1` to `CN1CCN(C(=S)c2ccc(N(C)C)cc2)CC1`, the “hERG current change (%, negative = inhibition) at 10uM” value rises from -54.8% to 17.1%.

Compared with `Cc1c(Cl)cccc1NC(=O)CC1NCCNC1=O` (stereo not shown), `COC(=O)c1cc(N2C(=O)C3C4C=CC(CC4)C3C2=O)ccc1Cl` (stereo not shown) is lower in “hERG current change (%, negative = inhibition) at 10uM” value: 14.4% for the first, 10.8% for the second.

First: Cc1nc2ccccn2c1/C(O)=C1\C(=O)C(=O)N(CCN2CCOCC2)C1c1cccnc1 (stereo not shown)
Second: CN1CCN(C(=O)c2cnn3c(C(F)(F)F)cc(-c4ccc5c(c4)OCO5)nc23)CC1
The “hERG current change (%, negative = inhibition) at 10uM” value of the first is higher: 22.7% for the first, -14.7% for the second.

First: FC(F)(F)c1cnc(NNC(=S)Nc2ccccc2Cl)c(Cl)c1
Second: O=C(COC(=O)c1ccccc1NC(=O)c1ccco1)NC1CCS(=O)(=O)C1 (stereo not shown)
The “hERG current change (%, negative = inhibition) at 10uM” value of the first is higher: 8.48% for the first, -2.03% for the second.

Going from `NC(=O)c1ccc(SCC(=O)OCC(=O)NC2CCCCCCC2)c([N+](=O)[O-])c1` to `O=C(NCCc1ccccc1)C1CCCN(C(=O)NC2CCCCC2)C1` (stereo not shown), the “hERG current change (%, negative = inhibition) at 10uM” value falls from -1.95% to -2.39%.

Going from `COc1ccccc1CNC(=O)C1CC(=O)N(C2CCCC2)C1` (stereo not shown) to `Cc1csc(NC(=O)CCC(=O)N(CC(=O)NC2CCCC2)Cc2ccccc2)n1`, the “hERG current change (%, negative = inhibition) at 10uM” value falls from 3.29% to -26.9%.

Going from `COc1ccc(C2=CC(=O)CC(C)(C)C2)cc1` to `COc1cccc(NC(=O)Cn2c3ccc(OC)cc3c3nc4n(c(=O)c32)CCS4)c1`, the “hERG current change (%, negative = inhibition) at 10uM” value rises from -2.21% to 12%.

Going from `O=C(N1CCN(c2ccccn2)CC1)C(Cl)(Cl)Cl` to `N#Cc1c2c(c[nH]c1=O)CCN2Cc1ccccc1`, the “hERG current change (%, negative = inhibition) at 10uM” value rises from 1.01% to 11.9%.

Compared with `CC1CC(C)CN(S(=O)(=O)c2ccc3c(c2)CC(C)N3C(=O)C2CCC2)C1` (stereo not shown), `NC(N)=NS(=O)(=O)c1ccc(NC(=S)NC(=O)/C=C/c2cccs2)cc1` is higher in “hERG current change (%, negative = inhibition) at 10uM” value: 4.7% for the first, 9.7% for the second.

Going from `c1n[nH]c(SCCCCSc2ncn[nH]2)n1` to `CCCCN(CC)c1nc(N)c(C#N)c(CC#N)c1C#N`, the “hERG current change (%, negative = inhibition) at 10uM” value falls from -3.39% to -24.9%.

Going from `CCn1cc(/C=N/O)c(C)n1` to `C=CCn1c(Cc2cccs2)nnc1SCC(=O)Nc1cc(OC)cc(OC)c1`, the “hERG current change (%, negative = inhibition) at 10uM” value falls from 16.3% to -27.8%.

First: COCc1cc(C)n(CC(=O)Nc2cc(C)cc(C)c2)c(=O)c1C#N
Second: Cc1ccc2[nH]c3c(=O)n4c(nc3c2c1)SCC4
The “hERG current change (%, negative = inhibition) at 10uM” value of the first is lower: 4.07% for the first, 23.6% for the second.

Compared with `C=CCN1C(=O)CSc2ccc(C(=O)NCc3cccs3)cc21`, `O=C(O)COc1cccc(NC(=O)C2CCCO2)c1` (stereo not shown) is higher in “hERG current change (%, negative = inhibition) at 10uM” value: -14.3% for the first, 10% for the second.
